The values that follow come from the supplement of paper PMC11417369.

± gives the standard deviation of the averaged measurements. The list shows a part of the results.

In the experiment the test system is PfAP2-LT AP2 domain (GST-tagged). Briefly: gcPBM binding intensity (ln(normalized median fluorescence intensity)); higher = stronger DNA binding. The procedure, abridged: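 GST-fused DNA-binding domains of P. falciparum, expressed in E. coli, were applied at about 25 μg on average for 1 h to an Agilent 4 × 180k array of primer-extended double-stranded 36-bp intergenic genomic probes and negative controls. Binding intensity is the highest Masliner-normalised natural-log median intensity across replicate spots of either probe orientation, measured with Alexa488 anti-GST antibody and a 488 nm scan.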
For “ATTTTTTTACTGCAACCATATTTTTCCCTTTTATTC [CACACA_negctrl_site1282]”, the “gcPBM binding intensity (ln)” value was 8.89 ± 0.51.
The figure for “AAATAAAATTATAACTGTACGTTGTATGAAATAATG [XGTACX_site5462]” is 8.79 ± 0.45; for “TGTATATATATATAAAGTACATATAATATATATTTG [XGTACX_site5411]” it is 8.68 ± 0.4.
For “GTGTACATAGGTATAGCACACACAAATGTAGGTATT [CACACA_site9339]” the value was 9.42 ± 0.34; for “TCTATAAAGTTCCATACATGCGCCATCATTTATATT [TGCATGCA_site195]”, 9.36 ± 0.45.
For “ATTATAATTATTTTGTTGCACTATTTTTGTAGGCCA [GTGCAC_site9734]” the value was 8.8 ± 0.49; for “GAATACACCACGCACACACACTTGAGAAAAAATAAA [CACACA_site7747]”, 9.66 ± 0.47.
Turning to ATTTTTTTCCTAATGGTGCGAATAAATATCCATACC, the “gcPBM binding intensity (ln)” value was 8.79 ± 0.47.
The figure for “TTAACAGTAAAACACAGTACATATATACTTAAAACA [XGTACX_site1930]” is 8.88 ± 0.46.
For “AAAGCTTACATATACACACATACATAAATTCATAAA [CACACA_site2469]” the value was 9.09 ± 0.42; for “TTTTTTTATTATACTAGTACATATATATACAGCACA [XGTACX_site3464]”, 8.76 ± 0.45; for “AAAAAAAAAAAAGGAACACACAAGTAACAATAAATT [CACACA_site2481]”, 9.09 ± 0.55.
Regarding “ATACTAAAGAAACACACACACATATATATATAGAAT [CACACA_site100]”, the “gcPBM binding intensity (ln)” value is 9.94 ± 0.28.
Regarding “TTTACACCCTAAAAATGTACAAGAAAGATTATATTA [XGTACX_site1102]”, the “gcPBM binding intensity (ln)” value is 8.5 ± 0.47.
The figure for “GAGAAATGGGGACACACACACATATTATAGATATAT [CACACA_site6829]” is 9.76 ± 0.38; for “TTGTTTGATATCTTTGTCACGAAAAAAATATATATA [GTGCAC_negctrl_site54]” it is 8.25 ± 0.41; for “TAAGGATAAAATAAATGTACATATGTAAAATTATTA [XGTACX_site4170]” it is 8.99 ± 0.5.
For “TAATCTCATAAAACCGCACACACATAAAATTTGCAT [CACACA_site3890]” the value was 9.4 ± 0.36; for “TTTTTAATAATCTCTCAAAATGTTCTTATATTTTAC [CACACA_negctrl_site1691]”, 8.43 ± 0.52; for “ATAATTTTGATTATCACACATATATATATATATATG [CACACA_site5882]”, 8.99 ± 0.42.
Turning to “ATATATTTCCTGAGGAGTACTATGAAAGACAAAAAA [XGTACX_site5628]”, the “gcPBM binding intensity (ln)” value turned out to be 8.66 ± 0.43.
In the case of “TAAGAAAAAAGTAAATGTACAGAGAAAATTATCTAT [XGTACX_site7374]”, the “gcPBM binding intensity (ln)” value is 8.76 ± 0.54.
For ATTTATTACAAATGAATGCACTATATCTTAATTTTG the value was 8.57 ± 0.53; for “ACATATATATAAAGGTGTACACATATATATATATAT [XGTACX_site4779]”, 9.87 ± 0.13; for “GATTTTTAAAATATCACACATAAAAAAAAAAAAAAA [CACACA_site5516]”, 8.32 ± 0.44.
For “AAAAAAATTCTGACTTGTACATATAAAATTTACAAA [XGTACX_site4408]” the value was 8.23 ± 0.47; for “TTTGTCATTTTATTATGTACTCAGCATATAGGGGGG [XGTACX_site505]”, 10.3 ± 0.33; for “TAATTTAATAATTAGACACACATGTGGAAAATAAAA [CACACA_site5401]”, 9.15 ± 0.4.
Take “ACATATTTATATATGTGTACATAAATATTCTTTTAA [XGTACX_site8238]”: the “gcPBM binding intensity (ln)” value is 8.69 ± 0.42.
For “ATAAAAAAATCAGACACACACACGTAAACCCATACA [CACACA_site2773]” the value was 9.925 ± 0.064.
For “ATTTATTTTTTTATCACACATTTGTGAAATGTGCAT [CACACA_site5869]” the value was 8.96 ± 0.4; for “ATATTAAGGTTTATATTTTAACTTATTATTTTATTC [CACACA_negctrl_site795]”, 8.7 ± 0.49; for “ATATATTCAATTCATACACACACAATTTAAGAATGA [CACACA_site9289]”, 9.2 ± 0.4.
Regarding “CATATCCTTACGAACTGTACAATATTAAGAATAAAA [XGTACX_site1651]”, the “gcPBM binding intensity (ln)” value was 8.61 ± 0.45.
The figure for “GTAAAAAGATAATGAAGTACATTTTTTCATTTTTAT [XGTACX_site5579]” is 8.54 ± 0.49.
Regarding “AAAAAAAAAAAACACACACACACACCCATATACATA [CACACA_site2664]”, the “gcPBM binding intensity (ln)” value was 10.31 ± 0.085.
For “CTAGACTTTATTAATTGTACATATGTGTATTTTATA [XGTACX_site480]” the value was 8.86 ± 0.33; for “GTCTATAACTATTGCGCACACTTTAAAAAAAAAGAA [CACACA_site1003]”, 8.91 ± 0.38.
Take “TATATATATATATAATGTACATAATAATAATACATC [XGTACX_site5587]”: the “gcPBM binding intensity (ln)” value is 9.02 ± 0.38.
The figure for “TAGAAGCATTGACACACACACATACATACACATACA [CACACA_site6802]” is 9.92 ± 0.14; for “TTTTCCTTTACATAATGTACACAAAAAAAAAAAAAA [XGTACX_site716]” it is 8.21 ± 0.35.
The figure for “GTTACTGCATACATAACACACATATTCAAAACCCAT [CACACA_site5856]” is 9.16 ± 0.33; for “AATACAGACAGACACACACACAAAATAAAATACAAA [CACACA_site245]” it is 9.95 ± 0.38; for “TCTTTTTTTTGAATTTGTACATAAGACAATAAAAAA [XGTACX_site4682]” it is 8 ± 0.4.
